Data set [1] in a line: Mouse PK, serum analysed by VEGF ELISA (VEGF coated ELISA). To be noted: for Half life: Table 3, ELISA format not given. The class given is in vivo, Swiss Webster mice. As for the experimental part:
(§1) PK studies were conducted using male Swiss Webster mice (CFW, Charles Rivers Hollister, Calif.) weighing approximately 20-22 grams at the start of dosing. [VEGF-Peptide]-[Linker]-[Antibody] complexes were given by IV administration through the tail vein, blood samples were taken from 3 mice per time point via retro orbital sinus bleed at the following time points: 0.08, 0.5, 1, 3, 5, 7 and 24 hours. […] For the remaining time points (32-120 hrs), mice were killed by CO2 inhalation and terminal cardiac samples were drawn. Protease Inhibitor cocktail was added to all blood tubes prior to sample collection. Blood was allowed to clot on ice for 30 minutes and then centrifuged at 12000 rpm for 5-10 minutes at 4° C. to collect serum and immediately stored at −80° C. until analysis via ELISA. Dosing solutions were used to establish the standard curves for serum sample analysis by VEGF Reverse ELISA. Aliquots of each serum sample were analyzed by either VEGF Reverse ELISA (also described herein as IgG Coated ELISA) or VEGF ELISA (VEGF Coated ELISA).
After washing the plates three times with 1× washing buffer (KPL Cat#50-65-00) and blocking with Superblock (Scytek #AAA500) at room temperature (RT) for 1 hour, prepared dosing solution standards (range: 3.91-500 ng/ml) and serum samples were added to the plate and incubated for 1 hour to allow binding of [VEGF-Peptide]-[Linker]-[Antibody] complexes to the coated VEGF on the plates. The plates were then washed three times with washing buffer, diluted goat anti-human IgG-HRP (1:5000) (Bethyl A80-104P-52) was added and incubated at RT for 1 hour, followed by addition of tetramethylbenzidine (TMB) substrate (Pierce, Cat#34021) for color development. The reaction was stopped with 2 M H2SO4. OD450 was measured using SpectraMax (Molecular Device) with a correction wavelength of 540 nm. Serum concentrations of the [VEGF-Peptide]-[Linker]-[Antibody] complexes were calculated using the standard curves. Serum [VEGF-Peptide]-[Linker]-[Antibody] complexes concentrations, as determined by ELISA, were plotted as a function of time. Further data analysis was undertaken using WinNonlin version 4.1 (Pharsight Corporation) to determine the β half life (T1/2) and the area under the curve (AUC) for [VEGF-Peptide]-[Linker]-[Antibody] complexes.

Data set [2] is described as follows: Mouse PK, serum analysed by VEGF Reverse ELISA (IgG coated ELISA). The class given is in vivo, Swiss Webster mice. To be noted: IgG coated ELISA (values in square brackets). As for the experimental part:
as §1
High-binding half-well 96-well plates (Costar #3690) were coated with 1:100 goat anti-human IgG in coating buffer (Bethyl Laboratories ELISA kit, Cat# E80-104) at 4° C. overnight. After washing the plates three times with 1× washing buffer (KPL Cat#50-65-00) and blocking with Superblock (Scytek #AAA500) at room temperature (RT) for 1 hour, prepared dosing solution standards (range: 3.91-500 ng/ml) and serum samples were added to the plate and incubated for 1 hour on a plate shaker to allow binding of [VEGF-Peptide]-[Linker]-[Antibody] complexes to the plates. A fixed concentration of VEGF (3 nM) was then added and incubated for 1 hour on a plate shaker. The plates were then washed three times with washing buffer, and a diluted (1:500) biotinylated anti-human VEGF antibody (R&D systems, Cat# BAF293) was added and incubated at RT for 2 hours. After washing the plates, streptavidin HRP conjugate (1:200 in Superblock) (R&D systems, Cat# DY998) was added to detect the bound anti-VEGF antibody, followed by addition of tetramethylbenzidine (TMB) substrate (Pierce, Cat#34021) for color development. The reaction was stopped with 2 M H2SO4. OD450 was measured using SpectraMax (Molecular Device) with a correction wavelength of 540 nm. Serum concentrations of the [VEGF-Peptide]-[Linker]-[Antibody] complexes were calculated using the standard curves. Serum compound concentrations, as determined by ELISA, were plotted as a function of time. Further data analysis was undertaken using WinNonlin version 4.1 (Pharsight Corporation) to determine the β half life (T1/2) and the area under the curve (AUC) for [Peptide]-[Linker]-[Antibody] complexes.

B1: 2053 (conjugate)
peptide: VEPNCDIHVKWVWECFERLYGLE
heavy: EVQLVESGGGLVQPGGSLRLSCAASGFTFSNYWMSWVRQSPEKGLEWVSEIRLRSDNYATHYAESVKGRFTISRDNSKNTLYLQMNSLRAEDTGIYYCKTYFYSFSYWGQGTLVTVSSASTKGPSVFPLAPSSKSTSGGTAALGCLVKDYFPEPVTVSWNSGALTSGVHTFPAVLQSSGLYSLSSVVTVPSSSLGTQTYICNVNHKPSNTKVDKRV[human IgG1 Fc left out here]
light: ELQMTQSPSSLSASVGDRVTITCRSSQSLLHTYGSPYLNWYLQKPGQSPKLLIYKVSNRFSGVPSRFSGSGSGTDFTLTISSLQPEDFAVYFCSQGTHLPYTFGGGTKVEIKRTVAAPSVFIFPPSDEQLKSGTASVVCLLNNFYPREAKVQWKVDNALQSGNSQESVTEQDSKDSTYSLSSTLTLSKADYEKHKVYACEVTHQGLSSPVTKSFNRGEC
Regarding B1, the “Half Life(Hrs) VEGF Coated” value in data set [1] (VEGF coated ELISA (values without brackets)) is 36 h. Further, in data set [1] (mouse, text b307), the VEGF half-life entry is recorded as “approximately 36 hours”.

B2: 2071 (conjugate)
peptide: VEPNCDIHVMWKWECFERL
heavy: B1 heavy
light: B1 light
For the molecule B2, the “Half life” value in data set [1] turned out to be 43 h.

B3: 2046 (conjugate)
peptide: VEPNCDIHVKWVWECFERLYGPL
heavy: B1 heavy
light: B1 light
On to B3, for which, in data set [2], the “Half Life(Hrs) [IgG] Coated” value is “[19] Hrs”.

B4: 2052 (conjugate)
peptide: VEPNCDIHVMWVWECFKRLYGLE
heavy: B1 heavy
light: B1 light
For the molecule B4, the “Half Life(Hrs) [IgG] Coated” value in data set [2] was “[38] Hrs”.

B5: 2048 (conjugate)
peptide: VEPNCDIHVKWVWECFERLYGPF
heavy: B1 heavy
light: B1 light
As to B5, the “Half Life(Hrs) [IgG] Coated” value in data set [2] is “[23] Hrs”.

B6: 2045 (conjugate)
peptide: VEPNCDIHVMWVWECFKRLYGPL
heavy: B1 heavy
light: B1 light
Consider B6, for which, in data set [2], the “Half Life(Hrs) [IgG] Coated” value was “[50^ Hrs”.

B7: 2069 (conjugate)
peptide: VEPNCDIHVKWEWECFERL
heavy: B1 heavy
light: B1 light
With B7, the “Half life” value in data set [1] is 52 h.

B8: 2028 (conjugate)
peptide: KEPNCDIHVMWEWECFERL
heavy: B1 heavy
light: B1 light
In the case of B8, the “Half life” value in data set [1] came to 32 h.

B9: 2073 (conjugate)
peptide: VEPNCDIHVMWEWECFKRL
heavy: B1 heavy
light: B1 light
As for B9, the “Half life” value in data set [1] turned out to be 83 h.
